# This is one part of the list.
# System: PF3D7_0420300 AP2 domain 1 (GST-tagged)
# Test: gcPBM binding intensity (ln(normalized median fluorescence intensity)); higher = stronger DNA binding
# Method in brief: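 Alexa488 anti-GST antibody, scanned at 488 nm, detected GST-tagged P. falciparum DNA-binding domains that had been expressed in E. coli and incubated for 1 h on an Agilent 4 × 180k array. The array carried primer-extended double-stranded 36-bp intergenic genomic probes and negative controls. Binding intensity is the highest Masliner-normalised natural-log median intensity across replicate spots of either orientation of each probe.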
row,Sequence,gcPBM binding intensity (ln)
1,ATGGGTTGTTCAAATAGTACATATGTAGCCCACCAT [XGTACX_site3735],9.21
2,ATTAAAAAAAAAAGTATACACACTTCTTAATGTCAA [CACACA_site1244],9.19
3,TTATATCCCGTCCTTTATTAAAAAAATTTTTTTTCT [TGCATGCA_negctrl_site582],9.22
4,ATAATAAGGTTAAGCACACATATTACAGATATAACT [CACACA_site5791],9.49
5,AAATATTATGTGGCAAGTACATAAAGAAAATGCTTA [XGTACX_site3356],9.26
6,AATAATAATAATAATAGTACATATTATGAATATGAT [XGTACX_site5730],9.31
7,ATAAATATGGAGCACACACACATAAACATACCTATA [CACACA_site6336],10
8,GATCTACATGAAAGGACACACAAATATATATATATA [CACACA_site84],9.44
9,TTAAAAATGATTGAATGTACAGATTAATATAATTTT [XGTACX_site7394],9.16
10,TAATTTTTGAAACACACACACATATATATATATATA [CACACA_site94],9.71
11,AAGTTAACACAACAGGTGCAAGAAAAGTTTTTAATG,9.25
12,ATCAAGCACGGACACACACACACACCCAGACCCCCA [CACACA_site4360],10.1
13,TATGGTATATACAACACACACACATATGTATATATA [CACACA_site927],9.92
14,TCTTTAATATATAGTGCATGTAAATTTTACAATAAT [TGCATGCA_site242],9.13
15,AGTTAATGTTTATGTACACACGGTGGGTATATATTT [CACACA_site5785],9.59
16,TGCAACAAAATAAACACACACACACTAACACAAAAA [CACACA_site7567],10.1
17,TTTAAAAATAAAAGTACACACATAAACATATTGCAC [CACACA_site6784],9.68
18,TTTTCATTTGAAAGTCGTACAAGTTCGAAAAAAGGA [XGTACX_site6840],8.96
19,CTTAAAAAAACCTTAACACACATAAACTATAATTTA [CACACA_site3055],9.42
20,ATATTATATATATGTGCACACAAAAGATATATATAT [CACACA_site2125],9.7
21,ATAAGCAATAAAAAAACATGCATATTATTATCAACA [TGCATGCA_site1027],9.4
22,TTAAATAGAAATAAGACTAACAATGAACCAAAAAAA [CACACA_negctrl_site991],9.55
23,TTTTGAAAAAGTTGCACACAAAATTTAAAAAAAAAA [CACACA_site1632],9

row,Sequence,gcPBM binding intensity (ln)
1,ATATATATATATATATATATAATTTTTTTTGTTTTT [TGCATGCA_negctrl_site453],9.05
2,GATATCAAAAAGATGGGTACATATATTTAAGTTCAT [XGTACX_site3822],9.27
3,TATATTATTAATTAGGGTACAAAAAAAAAATTTTTT [XGTACX_site7762],8.89
4,TAGGAAAAGAAAAGCACACACATAAATAGATATATA [CACACA_site6382],9.91
5,AAAAAAAAAATTTAGGTGCATACAAATAAATTATAT [GTGCAC_site9521],9.26
6,AGCAGTCAGCAGGACAGTACACAGTAGCCAGGAAAT [XGTACX_site4877],9.23
7,TTATTCTAAAAAGGGTGTACACAAACGAATGGAAAA [XGTACX_site5662],9.43
8,ATGGCTAAAAGTTGCACACACACAAAAAAAAAAAAA [CACACA_site3289],9.69
9,TATATATTAATATGCACACACAAGAAGTAATTATAA [CACACA_site3193],9.8
10,GGCATACACGGACACACACACACACCGACATATATA [CACACA_site4493],10.3
11,ATTATATAACAAAATAGTACATATATTTATTACATC [XGTACX_site336],9.26
12,TGCACAAAATTATGCACACACCTAAAATTAATTTTT [CACACA_site5596],9.46
13,GGCAATGATTTTAGGTGTACTTAAAAATCAAATTAA [XGTACX_site8587],8.85
14,ATTCTAATCATATACACACCCATATATATATATATA [CACACA_site1774],9.53
15,TATAAAAAATAAAATACACACACATATATATATATA [CACACA_site8365],9.79
16,TAATTTCTTATGTGCTATCTTATATAGAATTAATTT [CACACA_negctrl_site1726],9.07
17,TATGTTGGTTCTTTTAGTACATAATTACTAAATGTA [XGTACX_site8616],9.28
18,CAAACTACAAAATTTCGTACGCATATATTTCAAGTA [XGTACX_site5154],9.23
19,AAAACATACATATATACACACATATATATATATATA [CACACA_site1852],9.57
20,CAAAAAAGTAAAACGTGTACATATATACATAAAAAT [XGTACX_site5639],9.68
21,TTTAAACGTTATATAGTGCATGTCATATTTTATTAT,9.27
22,TACGTAATAATATGCACACAAATAAACTTTATAAAT [CACACA_site3501],9.55

# — the supplement of paper PMC11417369
